The record followed here is article PMC4518479, “Rad51 Paralogs Remodel Pre-synaptic Rad51 Filaments to Stimulate Homologous Recombination” (Cell, 2015).

Changes are numbered by the printed parent chain. Numbers in names are those of the source. Results are given in words; binding and its absence hold for the method and conditions named. For part of these data: Binding seen in cells or lysates may run through a third protein. Some entries that bind do so weakly or less than the wild type. For part of these data: Sequences can lack the tags named with a protein.

Assay [1] concerns the target T1, RFS-1 (yeast two-hybrid fusion) (C. elegans) (UniProt P34348).
T1 sequence: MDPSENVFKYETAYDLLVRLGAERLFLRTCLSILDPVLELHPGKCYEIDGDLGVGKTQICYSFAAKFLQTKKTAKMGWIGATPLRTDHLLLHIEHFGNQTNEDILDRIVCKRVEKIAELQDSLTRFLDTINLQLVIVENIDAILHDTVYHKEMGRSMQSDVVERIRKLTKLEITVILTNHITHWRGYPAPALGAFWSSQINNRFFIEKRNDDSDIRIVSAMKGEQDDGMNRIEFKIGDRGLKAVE
The assay can be described thus: two-hybrid; reciprocal yeast two-hybrid; read-out beta-galactosidase expression and survival on 3-aminotriazole (3-AT) without histidine.

For assay [2], the target named is T2, RIP-1 (RFS-1 interacting protein; yeast two-hybrid fusion) (C. elegans) (UniProt Q21621).
T2 sequence: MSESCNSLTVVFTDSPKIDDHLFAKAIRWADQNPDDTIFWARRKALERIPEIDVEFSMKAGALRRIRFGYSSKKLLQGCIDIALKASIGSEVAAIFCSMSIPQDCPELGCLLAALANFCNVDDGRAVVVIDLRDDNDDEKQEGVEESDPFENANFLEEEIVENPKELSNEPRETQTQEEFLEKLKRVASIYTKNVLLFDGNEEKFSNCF
The assay is described as above.

The target of assay [3] is T1, RFS-1 (yeast two-hybrid fusion) (C. elegans). The assay can be described thus: two-hybrid; DB-RFS-1 / AD-RAD-51 two-hybrid strains with RIP-1 co-expressed on a Ura-selectable plasmid; beta-galactosidase and 3-AT read-out.
The target in assay [4] is T3, RIP-1 V128E (yeast two-hybrid fusion) (C. elegans) (UniProt Q21621).
T3 sequence: T2 sequence with V128E
The assay can be described thus: two-hybrid; reciprocal yeast two-hybrid; read-out beta-galactosidase expression and survival on 3-aminotriazole (3-AT) without histidine.

Assay [5] has as its target T4, RAD-51 (purified, as RAD-51-ssDNA filament) (C. elegans) (UniProt Q95Q25).
T4 sequence: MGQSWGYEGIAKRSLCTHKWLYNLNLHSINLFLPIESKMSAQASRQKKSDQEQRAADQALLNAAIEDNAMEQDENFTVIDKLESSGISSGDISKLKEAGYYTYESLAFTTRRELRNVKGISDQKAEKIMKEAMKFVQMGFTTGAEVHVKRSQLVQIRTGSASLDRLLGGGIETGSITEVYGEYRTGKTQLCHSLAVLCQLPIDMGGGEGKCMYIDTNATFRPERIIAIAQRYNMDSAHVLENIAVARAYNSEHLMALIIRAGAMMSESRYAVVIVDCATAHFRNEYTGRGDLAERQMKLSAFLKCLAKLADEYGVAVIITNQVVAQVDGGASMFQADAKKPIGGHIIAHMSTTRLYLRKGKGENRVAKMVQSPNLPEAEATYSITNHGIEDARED
The assay can be described thus: native gel or EMSA; immuno-shift: complexes of RAD-51 and RFS-1/RIP-1 on fluorescently labeled 60-mer ssDNA incubated with anti-FLAG antibody (5 min), agarose gel; both purified. A general note: In EMSA bound probe runs differently from free probe, usually more slowly.

The target of assay [6] is T4, RAD-51 (purified, as RAD-51-ssDNA filament) (C. elegans). The assay can be described thus: native gel or EMSA; RAD-51 and RFS-1/RIP-1 on 60-mer ssDNA with ATP; resolved by native PAGE, or crosslinked with 0.25% glutaraldehyde and resolved in agarose gels; both purified.
For assay [7] the target is unchanged. The experiment in a line: immuno-gold electron microscopy; RAD-51, RFS-1/RIP-1 and linearized PhiX ssDNA (10 min), then anti-FLAG antibody conjugated to 20-nm gold particles (30 min), uranyl acetate stain; both purified.
Assay [8] concerns the target T5, FLAG-tagged RIP-1 co-expressed with RFS-1 in budding yeast (C. elegans) (UniProt Q21621).
T5 sequence: T2 sequence
The experiment in a line: co-IP; FLAG immunoprecipitation from budding yeast cells co-expressing RFS-1 and FLAG-tagged RIP-1; eluates stained with Instant Blue, Western blots. In general terms: A western blot detects proteins with antibodies after separation by electrophoresis.

The target of assay [9] is T6, C. elegans RIP-1 expressed in human 293T cells (C. elegans) (UniProt Q21621).
T6 sequence: T2 sequence
The experiment in a line: pull-down; GST pull-downs of C. elegans RFS-1 and RIP-1 expressed in human 293T cells.

B1: RAD-51 (yeast two-hybrid fusion) (protein, UniProt Q95Q25 1-395)
chain: T4 sequence
On to B1, for which the binding result in assay [1] is on record as “binds”; in assay [2], “no binding”; in assay [3], “binds”.

B2: RFS-1 (yeast two-hybrid fusion) (protein, UniProt P34348 1-245)
chain: T1 sequence
Take B2: the figures for the binding entry in assay [2] and in assay [4] were “binds” and “no binding”, respectively.

B3: RFS-1/RIP-1 complex (complex, UniProt P34348 1-245; Q21621 1-209)
chain 1: T1 sequence
chain 2: T2 sequence
With B3, the binding entry in assay [5], in [6] and in assay [7] was “binds” each time.

B4: RFS-1(K56A) co-expressed with RIP-1 in budding yeast (protein, UniProt P34348 1-245)
chain: T1 sequence with K56A
With B4, the binding entry in [8] was “binds”.

B5: RFS-1(K56A)/RIP-1 complex (complex, UniProt P34348 1-245; Q21621 1-209)
chain 1: T1 sequence with K56A
chain 2: T2 sequence
As to B5, in [6], the binding entry was “binds”.

B6: RFS-1 co-expressed with RIP-1 in budding yeast (natural protein, C. elegans, UniProt P34348 1-245, looked up)
chain: T1 sequence
notes: RFS-1 of C. elegans; see Supplemental Experimental Procedures; also called recombinant RFS-1; source: budding yeast, co-expressed with RIP-1, in extract; co-purified by FLAG immunoprecipitation
As for B6, the binding entry in [8] is on record as “binds”.

B7: RFS-1(E138A) co-expressed with RIP-1 in budding yeast (protein, UniProt P34348 1-245)
chain: T1 sequence with E138A
Take B7: in assay [8], the binding result is recorded as “binds”.

B8: RFS-1 E138A (yeast two-hybrid fusion) (protein, UniProt P34348 1-245)
chain: T1 sequence with E138A
Consider B8, for which the binding result in [2] was “binds”.

B9: RFS-1 K56A (yeast two-hybrid fusion) (protein, UniProt P34348 1-245)
chain: T1 sequence with K56A
Turning to B9, the binding result in assay [2] was “binds”.

B10: RFS-1(E138A)/RIP-1 complex (complex, UniProt P34348 1-245; Q21621 1-209)
chain 1: T1 sequence with E138A
chain 2: T2 sequence
Consider B10, for which, in assay [6], the binding result is recorded as “binds”.

B11: RFS-1 V135E (yeast two-hybrid fusion) (protein, UniProt P34348 1-245)
chain: T1 sequence with V135E
In the case of B11, in [2], the binding result was “no binding”.

B12: C. elegans RFS-1 expressed in human 293T cells (protein, UniProt P34348 1-245)
chain: T1 sequence
Turning to B12, the binding result in assay [9] was “binds”.

B13: RIP-1 co-expressed on a Ura-selectable plasmid in the RFS-1/RAD-51 two-hybrid strains (protein, UniProt Q21621 1-209)
chain: T2 sequence
For B13, in assay [3], the binding entry was “binds”.
